{"source": "paper PMC9911399", "about": "“Two distinct binding modes provide the RNA-binding protein RbFox with extraordinary sequence specificity”", "binders": {"B1": {"name": "UGUGUUC (DNA:RNA)", "RNA": "GGGAGACCGGAAUUCAGAUUGUCCUGUGUUCUUAAAUCCCGUCGUAGCCACCA", "DNA 1": "CAATCTGAATTCCGGTCTCCC", "DNA 2": "TGGTGGCTACGACGGGATT"}, "B2": {"name": "UAACGGG (DNA:RNA)", "RNA": "B1 RNA with G26A, U27A, G28C, U29G, U30G, C31G", "DNA 1": "CAATCTGAATTCCGGTCTCCC", "DNA 2": "TGGTGGCTACGACGGGATT"}, "B3": {"name": "ACAGAGG (DNA:RNA)", "RNA": "B1 RNA with U25A, G26C, U27A, U29A, U30G, C31G", "DNA 1": "CAATCTGAATTCCGGTCTCCC", "DNA 2": "TGGTGGCTACGACGGGATT"}, "B4": {"name": "GCGAGAU (DNA:RNA)", "RNA": "GGGAGACCGGAAUUCAGAUUGUCCGCGAGAUUUAAAUCCCGUCGUAGCCACCA", "DNA 1": "CAATCTGAATTCCGGTCTCCC", "DNA 2": "TGGTGGCTACGACGGGATT"}, "B5": {"name": "ACUCCAU (DNA:RNA)", "RNA": "B4 RNA with G25A, G27U, A28C, G29C", "DNA 1": "CAATCTGAATTCCGGTCTCCC", "DNA 2": "TGGTGGCTACGACGGGATT"}, "B6": {"name": "GAGGCCG (DNA:RNA)", "RNA": "B4 RNA with C26A, A28G, G29C, A30C, U31G", "DNA 1": "CAATCTGAATTCCGGTCTCCC", "DNA 2": "TGGTGGCTACGACGGGATT"}, "B7": {"name": "UAAUACG (DNA:RNA)", "RNA": "B1 RNA with G26A, U27A, G28U, U29A, U30C, C31G", "DNA 1": "CAATCTGAATTCCGGTCTCCC", "DNA 2": "TGGTGGCTACGACGGGATT"}, "B8": {"name": "GAUUUGG (DNA:RNA)", "RNA": "B1 RNA with U25G, G26A, G28U, U30G, C31G", "DNA 1": "CAATCTGAATTCCGGTCTCCC", "DNA 2": "TGGTGGCTACGACGGGATT"}, "B9": {"name": "CCACCCU (DNA:RNA)", "RNA": "B4 RNA with G25C, G27A, A28C, G29C, A30C", "DNA 1": "CAATCTGAATTCCGGTCTCCC", "DNA 2": "TGGTGGCTACGACGGGATT"}, "B10": {"name": "CUCGAAC (DNA:RNA)", "RNA": "B1 RNA with U25C, G26U, U27C, U29A, U30A", "DNA 1": "CAATCTGAATTCCGGTCTCCC", "DNA 2": "TGGTGGCTACGACGGGATT"}, "B11": {"name": "AGUCCGC (DNA:RNA)", "RNA": "B1 RNA with U25A, G28C, U29C, U30G", "DNA 1": "CAATCTGAATTCCGGTCTCCC", "DNA 2": "TGGTGGCTACGACGGGATT"}, "B12": {"name": "AGUUCCA (DNA:RNA)", "RNA": "B1 RNA with U25A, G28U, U29C, U30C, C31A", "DNA 1": "CAATCTGAATTCCGGTCTCCC", "DNA 2": "TGGTGGCTACGACGGGATT"}, "B13": {"name": "ACCGCUG (DNA:RNA)", "RNA": "B1 RNA with U25A, G26C, U27C, U29C, C31G", "DNA 1": "CAATCTGAATTCCGGTCTCCC", "DNA 2": "TGGTGGCTACGACGGGATT"}, "B14": {"name": "GACGAGU (DNA:RNA)", "RNA": "B4 RNA with C26A, G27C, A28G, G29A, A30G", "DNA 1": "CAATCTGAATTCCGGTCTCCC", "DNA 2": "TGGTGGCTACGACGGGATT"}, "B15": {"name": "AAUUUUG (DNA:RNA)", "RNA": "B1 RNA with U25A, G26A, G28U, C31G", "DNA 1": "CAATCTGAATTCCGGTCTCCC", "DNA 2": "TGGTGGCTACGACGGGATT"}, "B16": {"name": "UUCACUU (DNA:RNA)", "RNA": "B4 RNA with G25U, C26U, G27C, G29C, A30U", "DNA 1": "CAATCTGAATTCCGGTCTCCC", "DNA 2": "TGGTGGCTACGACGGGATT"}, "B17": {"name": "AUACGUU (DNA:RNA)", "RNA": "B4 RNA with G25A, C26U, G27A, A28C, A30U", "DNA 1": "CAATCTGAATTCCGGTCTCCC", "DNA 2": "TGGTGGCTACGACGGGATT"}, "B18": {"name": "GACCUGC (DNA:RNA)", "RNA": "B1 RNA with U25G, G26A, U27C, G28C, U30G", "DNA 1": "CAATCTGAATTCCGGTCTCCC", "DNA 2": "TGGTGGCTACGACGGGATT"}, "B19": {"name": "AUCUUCG (DNA:RNA)", "RNA": "B1 RNA with U25A, G26U, U27C, G28U, U30C, C31G", "DNA 1": "CAATCTGAATTCCGGTCTCCC", "DNA 2": "TGGTGGCTACGACGGGATT"}, "B20": {"name": "CGCAUUU (DNA:RNA)", "RNA": "B1 RNA with U25C, U27C, G28A, C31U", "DNA 1": "CAATCTGAATTCCGGTCTCCC", "DNA 2": "TGGTGGCTACGACGGGATT"}}, "note": "Where a chain is given by its changes, count along the chain named. The list shows a part of the results."}
{"biological_target": "T1, RBFOX1 RRM (Homo sapiens, UniProt Q9NWB1 109-208)", "T1 sequence": "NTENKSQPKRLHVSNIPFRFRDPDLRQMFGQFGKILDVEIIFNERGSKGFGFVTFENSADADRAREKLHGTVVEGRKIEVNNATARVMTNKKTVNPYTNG", "test": "EMSA; HiTS-Eq, 1 nM pool, 10 min; buffer printed only for the single-RNA assays: 10 mM Tris pH 7.5, 150 mM NaCl, 3.4 mM EDTA, 0.001% NP-40, 30 C", "conditions": "tags: His6 N-terminal (pET28a); label: 5' 32P", "procedure,_shortened": "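Purified wild-type or mutant RbFox RRM at increasing concentrations was equilibrated with 1 nM of 5′-radiolabelled RNA carrying 7 randomized nucleotides for 10 min in 50 µL. Unbound RNA was separated by 8% native PAGE and sequenced. Relative association constants came from read-count changes of each RNA species compared with the control reaction, normalised to the cognate motif.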"}
{"binder": "B1", "binding signal": "0.0217 KA relative to UGCAUGU"}
{"binder": "B2", "binding signal": "0.00415 KA relative to UGCAUGU"}
{"binder": "B3", "binding signal": "0.00768 KA relative to UGCAUGU"}
{"binder": "B4", "binding signal": "0.0204 KA relative to UGCAUGU"}
{"binder": "B5", "binding signal": "0.000544 KA relative to UGCAUGU"}
{"binder": "B6", "binding signal": "0.0201 KA relative to UGCAUGU"}
{"binder": "B7", "binding signal": "0.00765 KA relative to UGCAUGU"}
{"binder": "B8", "binding signal": "0.021 KA relative to UGCAUGU"}
{"binder": "B9", "binding signal": "0.00112 KA relative to UGCAUGU"}
{"binder": "B10", "binding signal": "0.00512 KA relative to UGCAUGU"}
{"binder": "B11", "binding signal": "0.0128 KA relative to UGCAUGU"}
{"binder": "B12", "binding signal": "0.00262 KA relative to UGCAUGU"}
{"binder": "B13", "binding signal": "0.00961 KA relative to UGCAUGU"}
{"binder": "B14", "binding signal": "0.0215 KA relative to UGCAUGU"}
{"binder": "B15", "binding signal": "0.0117 KA relative to UGCAUGU"}
{"binder": "B16", "binding signal": "0.00242 KA relative to UGCAUGU"}
{"binder": "B17", "binding signal": "0.00222 KA relative to UGCAUGU"}
{"binder": "B18", "binding signal": "0.0204 KA relative to UGCAUGU"}
{"binder": "B19", "binding signal": "0.00795 KA relative to UGCAUGU"}
{"binder": "B20", "binding signal": "0.0106 KA relative to UGCAUGU"}
